The record followed here is ChEMBL document CHEMBL1157539, “Thousands of chemical starting points for antimalarial lead identification” (Nature, 2010).

Molecules are shown by their SMILES. Over roughly 13,000 compounds, “IFI” has its median near 4; the highest 2% begin near 17. This is one part of the list.

This assay in a line: GSK_TCMDC: Inhibition Frequency Index (IFI). The number of non-kinase HTS assays where a compound showed > 50 % inhibition, expressed as a percentage of the number of such assays in which the compound was tested (-0 is zero). The format is functional.
In turn, `COc1ccccc1C1CCN(C2CCC(NC(=O)/C=C/c3cccc(Cl)c3F)CC2)CC1` (stereo unspecified) gave an IFI of 8.33%.

For the compound `O=C(Nc1ccccc1)N(Cc1cccc(-c2ccc(CNC3CCCC3)cc2)c1)C1CCN(Cc2ccccc2)CC1`, the IFI came to 10.6%.

As for `O=C(Nc1ccc(OC2CCN(Cc3ccc(F)cc3)C2)cc1)c1cccs1` (stereo unspecified), the IFI was found to be 3.28%.

Consider `CNC(=O)c1cnc(Nc2ccc(N3CCOCC3)cc2)nc1Nc1cccc(OC)c1`, for which the IFI is 3.73%.

As for `CCOc1ccccc1C1CCN(CCCCNC(=O)c2ccc(NC(=O)c3ccc(Cl)cc3)cc2)CC1`, the IFI was determined as 2.75%.

Take `O=C(/C=C/c1cc([N+](=O)[O-])ccc1Cl)N1CCC(CCN2CCC(c3c[nH]c4ccccc34)CC2)CC1`: the IFI was 4.51%.

As to `COc1ccc(-c2ccc(CNCc3ccccc3)cc2)cc1S(=O)(=O)NCCN1CCCC1`, the IFI came to 4.63%.

Compound `Cc1ccccc1NC(=S)NC1CCN(CCCCCNC(=O)/C=C/c2ccc(Cl)c(Cl)c2)CC1` gave an IFI of 7.09%.

The compound `CCCNC(=O)c1ccnc(-c2ccc(CNC3Cc4ccccc4C3)cc2)c1` gave an IFI of 3.28%.

Regarding `COc1ccccc1CCC(C)(C)NC(=O)CC(CCc1ccccc1)Nc1ccc(C#N)c2ccccc12` (stereo unspecified), the IFI is 1.9%.

As to `COC(=O)c1ccc(CC(C)NCC(O)c2ccc(C(O)CNC(C)Cc3ccc(C(=O)OC)cc3)cc2)cc1` (stereo unspecified), the IFI is 5.67%.

On to `CN(CCc1ccccn1)c1cccc2c1nc(-c1cccnc1)n2CCNCc1ccccc1`, for which the IFI stood at 1.35%.

The compound `O=C(NC1CCN(CCN2CCC(c3c[nH]c4ccccc34)CC2)CC1)c1ccc(-c2ccc(C(F)(F)F)cc2)cc1` came in with an IFI of 11.6%.

In turn, `FC(F)(F)c1ccc2[nH]c(-c3cccc(-c4ccc(CNCC5CCCO5)cc4)c3)nc2c1` (stereo unspecified) came in with an IFI of 5.88%.

As to `COc1ccc(Cl)cc1-c1nc(C(=O)NCCN2CCCCC2)c(C)s1`, the IFI turned out to be 1.33%.

`O=C(Nc1cccc(CN2CCCN(Cc3cccc(O)c3)CC2)c1)c1ccc(-c2ccccc2)cc1` had an IFI of 6.71%.

In turn, `COc1ccc2nccc([C@@H](O)CN3CCC(NCc4cc5cccc(OC)c5o4)CC3)c2c1` had an IFI of 1.46%.

`CC(Cc1ccc(NS(=O)(=O)c2ccc(CC(C)NCCc3cccc(Cl)c3)cc2)cc1)NCCc1cccc(Cl)c1` (stereo unspecified) registered an IFI of 8.28%.

As to `CCCOC(=O)c1ccc(OCCCON2C(=N)N=C(N)NC2(C)C)cc1`, the IFI stood at 3.85%.

The compound `Cc1nnsc1C(=O)Nc1cccc(-c2cccc(-c3nc4cc(C(F)(F)F)ccc4[nH]3)c2)c1` yielded an IFI of 9.91%.

Take `Cc1cc(N[C@@H](CC(C)C)C(=O)NCc2cccs2)nc(NCCc2cccs2)n1`: the IFI came to 4.55%.

Compound `Cc1cc(N2CCCC2)nc(NC(=N)Nc2cccc(C(F)(F)F)c2)n1` yielded an IFI of 5.3%.

Consider `CCCCCCCN1CCC(CC(=O)Nc2ccnc3ccc(OC)cc23)CC1`, for which the IFI came to 1.45%.

Compound `CCNC(=O)Nc1ccc(-c2cccc(-c3nc4cccc(C)c4[nH]3)c2)cc1` displayed an IFI of 5%.

Take `Cc1ccn2cc(-c3ccc(NC(=O)c4ccc(Br)o4)cc3)nc2c1`: the IFI stood at 10.4%.

As for `CCN1CCCC1CNC(=O)c1cc2c(-c3ccc(Cl)cc3)nn(C)c2s1` (stereo unspecified), the IFI came to 6.25%.

`CN1CCN(CCCN(Cc2ccc(-c3cccc(CNC4CCCC4)c3)cc2)C(=O)/C=C/c2ccccc2)CC1` returned an IFI of 6.67%.

For the compound `Cc1cc(C)cc(N2C(N)=NC(N)=NC2(C)C)c1`, the IFI was determined as 1.5%.

`CCOC(=O)c1c(C)noc1Nc1ccc(OC)cc1` returned an IFI of 1.47%.

In turn, `FC(F)(F)c1cccc(Nc2nc3nonc3nc2NC2C3CC4CC(C3)CC2C4)c1` (stereo unspecified) gave an IFI of 20.6%.

Compound `CCNc1cc(C(=O)N[C@@H](Cc2ccccc2)[C@H](O)CNC2CCC(C)(C)C2)cc(N2CCCCS2(=O)=O)c1` (stereo partly specified) showed an IFI of 1.48%.

The compound `COc1cc2c(cc1OC)CN(CCCCNC(=O)c1ccc(NC(=O)c3cc(Cl)cc(Cl)c3)cc1)CC2` registered an IFI of 1.79%.

The compound `COc1ccc(CNCc2ccccc2)cc1-c1ccc(S(=O)(=O)NCCN2CCCC2)c(F)c1` registered an IFI of 6.54%.

Regarding `CC(C)c1ccc2c(c1)C(=O)c1ccc(C(=O)O)cc1S2(=O)=O`, the IFI came out at 0%.

Compound `CC(C)CNCc1cccc(-c2ccc(CNc3ccc4ncccc4c3)cc2)c1` showed an IFI of 10.8%.

With `CN1CCCc2cc(NC(=O)c3cc(-c4ccc(Cl)cc4)cs3)ccc2C1`, the IFI was 10.2%.

Compound `OC(CNc1ccnc(Nc2ccc(Cl)cc2)n1)c1ccc(C(F)(F)F)cc1` (stereo unspecified) displayed an IFI of 13.5%.

For the compound `CC(C)c1ccc(NC(=O)c2ccc(C(=O)NC3CCN(Cc4ccsc4)C3)cc2)cc1` (stereo unspecified), the IFI was 4.42%.

The compound `CCN(CCNc1nc(NCCc2cnc[nH]2)nc(N(CCC#N)Cc2ccccc2)n1)c1cccc(C)c1` came in with an IFI of 3.65%.

For `COc1ccc(-c2cc3nc4c(c(NCCCn5ccnc5)n3n2)CCCC4)cc1`, the IFI was determined as 10.4%.

With `CCCCNc1nccc2ccc(-c3ccncc3)cc12`, the IFI stood at 2.86%.

As to `CC(C)C1CCc2nc(N)nc(N)c2C1` (stereo unspecified), the IFI was found to be 3.52%.

Take `O=C(N[C@@H](CC1CCCCC1)C(=O)NCCN1CCCC1)c1ccc(O)c(-c2cccc(C(F)(F)F)c2)c1`: the IFI came out at 2.19%.

`O=c1cc(NCC2(CNCc3cn(Cc4ccccc4)c4ccccc34)CCCCC2)[nH]c2ccccc12` registered an IFI of 8.21%.

For the compound `O=[N+]([O-])c1cc(C(c2ccc(O)c([N+](=O)[O-])c2)C(Cl)(Cl)Cl)ccc1O`, the IFI turned out to be 1.63%.

Consider `COc1cccc(CNC[C@@H](O)[C@H](Cc2ccccc2)NC(=O)c2cc3c4c(c2)c(C(C)C)cn4CCS(=O)(=O)N3C)c1`, for which the IFI was found to be 5.97%.

In turn, `CCCc1c(C(=O)Nc2ccc3c(c2)CCN(C2CCC2)CC3)cnn1-c1ccc(Cl)cc1` displayed an IFI of 9.85%.

As to `c1cncc(-c2cccc(CNc3nccc(Nc4ccc(OCCN5CCOCC5)cc4)n3)c2)c1`, the IFI came out at 0%.

`O=C(Cn1c2ccccc2c(=O)c2ccc(Cl)cc21)Nc1ccc(C(F)(F)F)cc1` yielded an IFI of 0.67%.

In turn, `Cc1c(CNCCCNc2cc(=O)c3ccccc3[nH]2)sc(-c2ccco2)c1Br` yielded an IFI of 5.19%.

In turn, `N=C(NCc1ccc(O)cc1)Nc1nc(-c2ccc(OCCCn3ccnc3)cc2)cs1` returned an IFI of 6.47%.

Turning to `CCOc1c(Cl)cc(Cl)cc1CNCCCNc1nc2ccccc2[nH]1`, the IFI came out at 7.25%.

In turn, `CCOC(=O)c1c[nH]c2c(sc3cc(OC)ccc32)c1=O` returned an IFI of 0%.

`COc1cc(CCNC(=O)Cc2ccc3ccccc3c2)ccc1OCc1ccccc1` registered an IFI of 1.63%.

As for `CC1CCCCC1N(C)C1CCN(CCCNC(=O)C=Cc2ccccc2Cl)CC1` (stereo unspecified), the IFI is 5.98%.

Turning to `COc1ccc(-c2nonc2NC(=O)c2cccc(Cl)c2)cc1OC`, the IFI was 1.03%.

In turn, `CCCCCCN(CCCCCC)CC(O)c1c(OC)ccc2ccccc12` (stereo unspecified) came in with an IFI of 5.93%.

`Cc1ccc(CN2CCCN(Cc3cccc(C(=O)Nc4ccc(C(C)(C)C)cc4)c3)CC2)s1`: the IFI is 9.59%.

`CN(C)c1cc2c(Nc3ccc4nc(Cc5ccccc5)[nH]c4c3)ncnc2cn1` had an IFI of 0.79%.

For `CCCCN(CCCC)CCNC(=O)c1cccc(NC(=O)N2CCc3cc(SC)c(C(F)(F)F)cc32)c1`, the IFI is 8.53%.

The compound `Cn1cnc2c(Nc3ccncc3)nc(-c3ccc4c(c3)OCO4)nc21` returned an IFI of 2.94%.

For the compound `COc1cc2c(cc1C(F)(F)F)N(C(=O)Nc1cc(Br)cc(-c3cccnc3)c1)CC2`, the IFI was 3.55%.

Compound `CC(C)(C)C(=O)N1CCN(c2ccc([N+](=O)[O-])c(NC3CC3)c2)CC1` gave an IFI of 1.4%.

Compound `Nc1nc(N)c2c(ccc3c2ccn3Cc2ccc(Cl)cc2)n1` showed an IFI of 13.2%.

With `COc1cc(OC)c(NC(=O)C2c3ccccc3C(=O)N(CC(C)C)C2c2cccs2)cc1Cl` (stereo unspecified), the IFI stood at 0%.

For `Cc1ccc(S(=O)(=O)N2CCN(C(=O)c3cc(-c4cccs4)n[nH]3)CC2)c(C)c1`, the IFI is -0%.

In turn, `Cc1cccc2nc(-c3ccc(-c4ccc(C(=O)NCCc5cn(C)cn5)cc4)s3)[nH]c12` returned an IFI of 4.81%.

The compound `CC(C)(C)c1ccc(NC(=O)c2cccc(CN3CCCN(Cc4cccc(C#N)c4)CC3)c2)cc1` had an IFI of 7.75%.

Compound `O=c1cc(NCCCCNCc2cccc(Cl)c2)[nH]c2ccccc12` came in with an IFI of 3.65%.

For the compound `O=C(NCCCCN1CCC(O)(c2ccc(Cl)cc2)CC1)c1ccc(Br)cc1`, the IFI is -0%.

As for `CCCCCNc1nc2nc(N)nc(N)c2nc1-c1ccccc1`, the IFI worked out at 4.44%.

Compound `O=C1COC2(CN1C1CCN(Cc3ccc(O)c(Cl)c3)C1)c1ccccc1-c1ccccc12` (stereo unspecified) displayed an IFI of 3.15%.

The compound `Nc1nc(N)c2cc(CNc3ccc(Cl)c(Cl)c3)ccc2n1` showed an IFI of 13.6%.

Take `O=C(Nc1cccc(CN2CCCN(Cc3ncc[nH]3)CC2)c1)c1ccc2ccccc2c1`: the IFI came out at 1.38%.

The compound `CCCCNC[C@@H](O)[C@H](Cc1ccccc1)NC(=O)c1cc2c3c(c1)c(CC)cn3CCS(=O)(=O)N2C` displayed an IFI of 2.92%.

As for `CCOC(=O)c1ccc(NC(=O)Nc2ccc(Cn3ncc(N4CCCNCC4)c(Cl)c3=O)cc2)cc1`, the IFI came out at 7.35%.

As to `CCCC(=O)Nc1ccc(OCCCN(Cc2cccc(C(F)(F)F)c2)c2ccc(C#N)c(C(F)(F)F)c2)cc1`, the IFI was 0.71%.

In turn, `CCN(CC)Cc1cc(Nc2ccnc3cc(Cl)ccc23)ccc1O` came in with an IFI of 2.16%.

For the compound `CN1CCCc2ccc(NC(=O)c3cnc(-c4ccccc4)cn3)cc21`, the IFI was 1.38%.

For the compound `COc1ccc2c(=NN=Cc3cccc(C)n3)cc(-c3ccccc3)[nH]c2c1`, the IFI is 0.77%.

On to `CC(C)c1ccc(-c2noc(SCC(=O)N(C)c3ccc(F)cc3)n2)cc1`, for which the IFI is 2.33%.

`Cc1cc(Nc2nc(NCc3cccnc3)nc3ccccc23)n[nH]1` had an IFI of 6.72%.

In turn, `CC(=O)Nc1ccc(C(=O)Nc2cccc(-c3ccc(-c4nc5ccccc5[nH]4)s3)c2)cn1` came in with an IFI of 3.6%.

`O=C(COc1ccc(Cl)c(Cl)c1)NCCCCCN1CCCN(C(=O)Nc2cc(Cl)cc(Cl)c2)CC1` registered an IFI of 13.2%.

Regarding `CC(=O)Nc1ccc(C(=O)Nc2ccc(-c3cccc(-c4nc5cccc(C)c5[nH]4)c3)cc2)cn1`, the IFI came out at 5.45%.

On to `O=C(/C=C/c1cccc(OC(F)(F)F)c1)NCCCCCN1CCC(c2c[nH]c3ccccc23)CC1`, for which the IFI was determined as 5.22%.

As to `CC1(C)N=C(N)N=C(N)N1OCCCCON1C(N)=NC(N)=NC1(C)C`, the IFI came out at 1.44%.

Compound `O=c1ccc2ccc(F)c3c2n1CC3CN1CCC(NCc2cccc(-c3cccs3)c2)CC1` (stereo unspecified) came in with an IFI of 8.33%.

`O=C(NCCCN(Cc1ccc(F)cc1)c1ccccn1)C(c1cc2ccccc2o1)N1CCN(C(c2ccccc2)c2ccccc2)CC1` (stereo unspecified) showed an IFI of 2.08%.

In turn, `Cc1cc(N[C@@H](CC(C)C)C(=O)NCCCOC(C)C)nc(NCCc2ccc(F)cc2)n1` registered an IFI of 4.88%.

In turn, `CN(C)c1ccc(-c2nnc(Sc3ccc(C#N)c([N+](=O)[O-])c3)n2Cc2ccco2)cc1` returned an IFI of 3.55%.
